Relative growth data for 59 molecules are collected here from the supplement of paper PMC9446081.

Screen size: about 39,000 compounds; about 220 (0.56%) showed activity. Some of the results follow.
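Also: static incubation at 37 °C against the wild-type strain, values averaged over two biological replicates.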

The test system of this test is Escherichia coli K-12 BW25113. Kind of test: relative growth (OD600 normalised to plate interquartile mean) (fraction); higher = less growth inhibition, active = 0.2 or less. The settings on record: 50 µM; LB; incubation time: overnight (16-24 h).
Consider `CC(=O)C12OC1(C)CC1C3CC=C4CC(O)CCC4(C)C3CCC12C` (stereo not drawn) [16beta-METHYL-16(17)-EPOXY-5-PREGNENOLONE], for which the relative growth is inactive: 0.955.
On to `C[C@H](CO)N1C[C@H](C)[C@H](CN(C)Cc2ccc(C(=O)O)cc2)OCCCC[C@H](C)Oc2ccc(NC(=O)C3CCCCC3)cc2C1=O`, for which the relative growth is inactive: 1.01.
The same measure for `O=C(N[C@@H](c1ccccc1)c1ccc2ccccc2n1)C1CCN(Cc2ccc(Oc3ccccc3)cc2)CC1`: inactive: 1.02; for `CC(C)[C@@H](N)c1nc2ccccc2[nH]1`: inactive: 1.
The same measure for `CC(C)NC(=O)N(C)C[C@H]1Oc2ccc(NC(=O)CCN3CCOCC3)cc2C(=O)N([C@@H](C)CO)C[C@@H]1C`: inactive: 1.01.
The figure for `C[C@H]1CN([C@@H](C)CO)C(=O)Cc2cc(NC(=O)Cc3cn(C)c4ccccc34)ccc2O[C@H]1CN(C)C(=O)Nc1cccc2ccccc12` is inactive: 1.01; for `CN(C)Cc1cn(CC[C@H]2CC[C@@H](NS(=O)(=O)c3ccccc3)[C@H](CO)O2)nn1` it is inactive: 0.988.
On to `COc1ccc(NC(=O)N(C)C[C@H]2Oc3c(NS(=O)(=O)c4cn(C)cn4)cccc3C(=O)N([C@@H](C)CO)C[C@H]2C)cc1`, for which the relative growth was inactive: 1.01.
The same measure for `COc1ccc(NC(=O)N(C)C[C@H]2OCCCC[C@H](C)Oc3ccc(NS(=O)(=O)c4c(C)noc4C)cc3C(=O)N([C@H](C)CO)C[C@@H]2C)cc1`: inactive: 1; for `O=C(C[C@H]1CC[C@@H]2[C@H](COC[C@H](O)CN2C(=O)c2ccccn2)O1)NC1CCC1`: inactive: 1.02.
The figure for `[N-]=[N+]=NCc1ccccc1C[C@]1(C(=O)NC[C@@H](O)CO)N=C(c2ccc(OCCCO)cc2)O[C@H]1c1ccccc1` is inactive: 1.01; for `CC(=O)N[C@H]1C(=O)SC1(C)C` it is inactive: 0.996; for `C[C@@H]1CN([C@@H](C)CO)C(=O)c2cccc(NC(=O)Nc3ccc(C(F)(F)F)cc3)c2O[C@H]1CN(C)S(=O)(=O)c1ccc(Cl)cc1` it is inactive: 0.793.
Turning to `C[C@H](CO)N1C[C@H](C)[C@@H](CN(C)Cc2ccc3c(c2)OCO3)OCCCC[C@H](C)Oc2ccc(NS(=O)(=O)c3ccc(Cl)cc3)cc2C1=O`, the relative growth was inactive: 1.01.
Consider `CC(C)(Sc1cc(C(C)(C)C)c(O)c(C(C)(C)C)c1)Sc1cc(C(C)(C)C)c(O)c(C(C)(C)C)c1`, for which the relative growth is inactive: 1.08.
The figure for `C[C@H]1[C@H]([Si](C)(C)F)[C@@H](CCO)O[C@]12C(=O)N(Cc1ccccc1)c1ccc(N3C(=O)c4ccccc4Oc4ccccc43)cc12` is inactive: 1.01.
Consider `C[C@H](CO)N1C[C@H](C)[C@@H](CN(C)C(=O)Cc2ccccc2)OCCCC[C@H](C)Oc2ccc(NC(=O)C3CCCCC3)cc2C1=O`, for which the relative growth is inactive: 1.03.
The same measure for `O=C(C[C@@H]1CC[C@@H]2[C@H](COC[C@H](O)CN2S(=O)(=O)c2cccc(Cl)c2)O1)NC1Cc2ccccc2C1`: inactive: 0.985; for `C[C@@H]1CN([C@H](C)CO)C(=O)c2cc(C#C[C@@H](C)O)cnc2O[C@@H]1CN(C)Cc1cncnc1`: inactive: 0.997; for `C[C@H](CO)N1C[C@H](C)[C@@H](CN(C)Cc2ccc(C(=O)O)cc2)Oc2ccc(NC(=O)c3ccncc3)cc2CC1=O`: inactive: 1.03.
The figure for `N=C(N=C(N)N)Nc1ccccc1` is inactive: 0.972; for `Cc1ccc(-c2ccc(N)cc2)cc1` it is inactive: 0.953; for `CC(C)(C)NCC(O)COc1nsnc1N1CCOCC1.O=C(O)C=CC(=O)O` (centres undefined) it is inactive: 0.974.
The figure for `C[C@@H]1CN([C@H](C)CO)C(=O)c2cc(C#Cc3ccccc3F)cnc2O[C@@H]1CN(C)C(=O)c1ccc2c(c1)OCO2` is inactive: 1; for `CC(C)CC#Cc1ccc2c(c1)O[C@@H](CN(C)C(=O)c1cccnc1)[C@@H](C)CN([C@@H](C)CO)S2(=O)=O` it is inactive: 0.981.
In the case of `COCC#Cc1ccc2c(c1)O[C@@H](CN(C)C(=O)COC)[C@@H](C)CN([C@@H](C)CO)S2(=O)=O`, the relative growth was inactive: 0.998.
The same measure for `COc1ccc(-c2cc(=O)c3c(O)cc(OC4OC(COC5OC(C)C(O)C(O)C5O)C(O)C(O)C4O)cc3o2)cc1O` (centres undefined): inactive: 1.11; for `CO[C@@H]1CN(C)C(=O)c2ccc(NC(=O)C3CCC3)cc2OC[C@@H](C)N(C(=O)Nc2ccc(C(F)(F)F)cc2)C[C@H]1C`: inactive: 0.963; for `C=CCOC(=O)[C@H]1[C@@H]2C(=O)O[C@@H](c3ccccc3)[C@@H](c3ccccc3)N2[C@@H](c2ccc(OCCOC(=O)[C@H]3C[C@H]4C(=O)N[C@@H](Cc5ccccc5)C(=O)N4[C@H]3c3ccc(O)cc3)cc2)[C@]12C(=O)Nc1ccc(I)cc12`: inactive: 1.08.
The same measure for `C[C@@H]1CCCCO[C@H](CN(C)S(=O)(=O)c2ccccc2)[C@@H](C)CN([C@@H](C)CO)C(=O)c2cc(NS(=O)(=O)c3cn(C)cn3)ccc2O1`: inactive: 1.02.
The same measure for `C[C@H](CO)N1C[C@H](C)[C@@H](CN(C)S(=O)(=O)c2cn(C)cn2)Oc2ccc(NS(=O)(=O)c3ccc(Cl)cc3)cc2C1=O`: inactive: 0.98; for `C[C@H](CO)N1C[C@H](C)[C@H](CN(C)Cc2ccc(C(=O)O)cc2)OCCCC[C@H](C)Oc2ccc(NC(=O)Nc3ccc(F)cc3)cc2C1=O`: inactive: 0.972.
As for `COCC(=O)N(C)C[C@H]1Oc2cc(-c3ccc(OC)cc3)ccc2S(=O)(=O)N([C@H](C)CO)C[C@@H]1C`, the relative growth is inactive: 0.986.
For the molecule `Cc1nc(=O)c(/C=N/O)c(O)[nH]1`, the relative growth was inactive: 1.
The same measure for `C[C@H]1CN([C@@H](C)CO)C(=O)c2cccc(NC(=O)Nc3ccc(F)cc3)c2O[C@@H]1CN(C)Cc1ccc(Cl)c(Cl)c1`: inactive: 0.954; for `O=C(Nc1ccc2c(c1)[C@H]1C[C@H](CC(=O)N3CCc4ccccc4C3)O[C@@H](CO)[C@H]1O2)C1CCOCC1`: inactive: 0.998; for `O=C1O[C@H](c2ccccc2)[C@H](c2ccccc2)N2[C@H]1[C@@H](C(=O)N1CCCCCCC1)[C@]1(C(=O)Nc3ccc(C#CC4(O)CCCCCC4)cc31)[C@H]2c1ccc(O)cc1`: inactive: 1.01.
The same measure for `O=C(CCCCCNC(=O)OCc1ccc(CO[C@H]2C[C@@H](c3ccc(Br)cc3)C=C(C(=O)N3CCN(Cc4ccc5c(c4)OCO5)CC3)O2)cc1)NO`: inactive: 0.981; for `CO[C@@H](CN(C)S(=O)(=O)c1ccc(F)cc1)[C@H](C)CN([C@H](C)CO)S(=O)(=O)c1cccc(Cl)c1`: inactive: 1.02; for `C[C@H]1CN([C@@H](C)CO)S(=O)(=O)c2ccc(C3=CCCC3)cc2O[C@H]1CN(C)S(=O)(=O)c1ccc(F)cc1`: inactive: 1.04.
The same measure for `Cc1ccc(S(=O)(=O)N[C@@H]2CC[C@H](CCNC(=O)CN3CCOCC3)O[C@@H]2CO)cc1`: inactive: 0.949.
In the case of `C[C@@H]1CN([C@H](C)CO)C(=O)CCCn2cc(nn2)CO[C@@H]1CN(C)C(=O)Nc1ccc(N2CCCCC2)cc1`, the relative growth is inactive: 1.
The figure for `COc1ccc(S(=O)(=O)Nc2ccc3c(c2)C(=O)N([C@H](C)CO)C[C@H](C)[C@@H](CN(C)S(C)(=O)=O)O3)cc1` is inactive: 1.01; for `C[C@@H]1CN([C@@H](C)CO)C(=O)c2cc(N(C)C)ccc2O[C@@H](C)CCCCO[C@@H]1CN(C)CC1CCCCC1` it is inactive: 0.99.
On to `C[C@H](CO)N1C[C@H](C)[C@@H](CN(C)C(=O)Nc2ccccc2C(F)(F)F)OCc2ccccc2-c2c(n(C)c3ccccc23)C1=O`, for which the relative growth is inactive: 0.978.
For `C[C@@H]1CN([C@@H](C)CO)C(=O)c2cc(NS(=O)(=O)c3ccccc3)ccc2O[C@@H]1CN(C)Cc1ccc(Oc2ccccc2)cc1`, the relative growth was inactive: 0.967.
For the molecule `c1ccc2c(CSc3nc4ccccc4o3)cccc2c1`, the relative growth is inactive: 0.976.
With `CC(C)(ON=C(C(=O)NC1C(=O)N2C(C(=O)[O-])=C(C[n+]3ccccc3)CSC12)c1csc(N)n1)C(=O)O` (centres undefined), the relative growth was active: 0.0511.
Turning to `C[C@@H]1CN([C@@H](C)CO)C(=O)c2cc(NC(=O)Nc3ccc(F)cc3)ccc2O[C@@H](C)CCCCO[C@H]1CN(C)Cc1ccccc1`, the relative growth is inactive: 0.998.
Turning to `C[C@@H]1CCCCO[C@H](CN(C)C(=O)C2CCCCC2)[C@H](C)CN([C@@H](C)CO)C(=O)c2cc(NC(=O)CCC(F)(F)F)ccc2O1`, the relative growth is inactive: 0.996.
Consider `COc1ccc(S(=O)(=O)Nc2ccc3c(c2)C(=O)N([C@H](C)CO)C[C@@H](C)[C@H](CN(C)CC2CC2)O3)cc1`, for which the relative growth is inactive: 1.01.
As for `C[C@@H]1CN([C@@H](C)CO)C(=O)c2cccc(NS(=O)(=O)c3ccccc3)c2O[C@@H]1CN(C)Cc1ccncc1`, the relative growth is inactive: 0.998.
For the molecule `COCC(=O)Nc1ccc2c(c1)C(=O)N(C)[C@@H]1CC[C@@H](CC(=O)NC3Cc4ccccc4C3)O[C@H]1CO2`, the relative growth is inactive: 1.05.
The figure for `Cc1ccc(S(=O)(=O)Nc2ccc3c(c2)C(=O)N([C@H](C)CO)C[C@@H](C)[C@@H](CN(C)S(=O)(=O)c2cccs2)O3)cc1` is inactive: 0.951; for `C[C@@H]1CN([C@H](C)CO)C(=O)CCCn2cc(nn2)CO[C@H]1CN(C)S(=O)(=O)c1ccc(Oc2ccccc2)cc1` it is inactive: 0.982.
For `C[C@H]1CN([C@@H](C)CO)C(=O)c2cc(NC(=O)C3CC3)ccc2O[C@H]1CN(C)C(=O)NC1CCCCC1`, the relative growth is inactive: 0.98.
For `CC(C)NC(=O)Nc1ccc2c(c1)C(=O)N([C@H](C)CO)C[C@@H](C)[C@@H](CN(C)CC1CCCCC1)OCCCC[C@H](C)O2`, the relative growth was inactive: 1.
As for `COc1ccc(NC(=O)N(C)C[C@H]2OCCCC[C@@H](C)Oc3ccc(NC(=O)Nc4ccccc4)cc3C(=O)N([C@H](C)CO)C[C@H]2C)cc1`, the relative growth was inactive: 1.02.
For the molecule `O=C(CCc1cn(-c2ccc(C[C@H]3C(=O)O[C@@H](Cc4ccccc4)[C@H]4[C@@H]5C=CCCC=C5CN43)cc2)nn1)NO`, the relative growth is inactive: 1.01.
